Inconclusive results, whose numbers are uncertain, are shown with a selection of clear calls. A potency beside an inconclusive call is a rough fit, not a confirmed value. The source made the active and inactive calls. Unless noted, the call rests on the fitted dose curve; in most records, active means well fitted curve in the direction sought with a large enough effect; inconclusive means small, poorly fitted or top-dose-only effect, or another doubt; inactive means no such curve, though single readings can be large; an effect the other way counts as inactive or inconclusive. Starred links: 1 amine or outer side, 2 acyl side, 3 side chain; linkers in the order of their positions; H or OH if unused. Positions of bridges follow the written chain, without caps; N, C: chain ends. Non-standard residues stand in square brackets, D forms with d. Residues, ends and D or L forms follow the SMILES beside them. Chains are numbered I, II in the order given. Actinocin(9to1) = Cc1c2oc3c(C)ccc(C(=O)[*:1])c3nc-2c(C(=O)[*:2])c(N)c1=O; aThr = C[C@H](O)[C@H](N)C(=O)O; NMeV = CN[C@H](C(=O)O)C(C)C; Sar = CNCC(=O)O
Target: Chromobox protein homolog 1 (Homo sapiens) (UniProt P83916)
Chain of UniProt P83916 (P83916 whole entry, looked up): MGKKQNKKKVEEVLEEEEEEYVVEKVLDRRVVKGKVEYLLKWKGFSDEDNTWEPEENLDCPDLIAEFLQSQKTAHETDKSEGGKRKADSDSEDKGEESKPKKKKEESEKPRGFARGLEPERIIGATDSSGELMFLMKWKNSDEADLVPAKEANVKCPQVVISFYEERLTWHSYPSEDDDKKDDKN
Experiment: qHTS Validation Assay for Inhibitors of HP1-beta Chromodomain Interactions with Methylated Histone Tails (AID 488953); further: nearly all actives have a fitted effect of over 50% in size
Conditions: HP1-beta chromodomain / methylated histone peptide binding assay; series mostly up to 114 µM
Procedure, shortened: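 50 nM HP1-beta + 50 nM biotin-H3(1-18)K9me3, PBS pH 7.4, 0.01% Tween-20, 30 min RT; compound added, 30 min RT; AlphaScreen beads 10 ug/mL final, 30 min dark; luminescence read.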
Potency means the concentration at half of the fitted maximal effect; tags describe the fitted curve by direction and shape or compound fluorescence and quenching.

| SMILES | Potency |
| --- | --- |
| CCCCOc1cc(CC2CNC(=O)N2)ccc1OC (centres undefined) | inactive |
| CO/N=C(\C(=O)N[C@@H]1C(=O)N2C(C(=O)O)=C(CSc3nc(=O)c(O)nn3C)CSC12)c1csc(N)n1 (some centres undefined) | inconclusive: 17.8 µM [inhibitor, partial curve] |
| CCCn1c(=O)c2[nH]c(-c3ccc(OCC(=O)NCCN)cc3)nc2n(CCC)c1=O | inconclusive: 0.006 µM [inhibitor, full curve] |
| COc1ccccc1N1CCN(CCN(C(=O)c2ccc(F)cc2)c2ccccn2)CC1 | inconclusive: 89.1 µM [inhibitor, single point] |
| NCC(O)c1ccc(O)c(O)c1 (centres undefined) | inconclusive: 100 µM [inhibitor, single point] |
| CC(N)(Cc1ccc(O)c(O)c1)C(=O)O (centres undefined) | active: 5.32 µM |
| Oc1cc2c(cc1O)C(c1ccccc1)CNCC2 (centres undefined) | inconclusive: 89.1 µM [inhibitor, single point] |

Target: D(1A) dopamine receptor (Homo sapiens) (UniProt P21728)
Chain of UniProt P21728 (P21728 whole entry, looked up): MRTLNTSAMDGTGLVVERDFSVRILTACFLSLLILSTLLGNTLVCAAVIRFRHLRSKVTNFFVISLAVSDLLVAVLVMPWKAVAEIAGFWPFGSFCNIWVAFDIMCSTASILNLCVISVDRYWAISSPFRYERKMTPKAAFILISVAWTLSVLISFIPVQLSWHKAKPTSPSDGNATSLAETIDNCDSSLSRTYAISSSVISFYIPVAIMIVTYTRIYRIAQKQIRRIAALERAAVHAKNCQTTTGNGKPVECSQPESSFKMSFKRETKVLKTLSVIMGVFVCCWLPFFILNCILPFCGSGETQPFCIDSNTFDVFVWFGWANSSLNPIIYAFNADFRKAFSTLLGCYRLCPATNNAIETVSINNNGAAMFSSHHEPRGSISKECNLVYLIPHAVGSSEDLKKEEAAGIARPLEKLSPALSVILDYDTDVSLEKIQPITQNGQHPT
Experiment: HTS Assay for Allosteric Agonists of the Human D1 Dopamine Receptor: Primary Screen for Potentiators (AID 488982)
Conditions: HEK293 T-REx D1 inducible cells, calcium flux, kinetic fluorescence; series mostly up to 8.37 µM
Procedure, shortened: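 Tetracycline-induced HEK293 T-REx cells force-coupled to calcium signalling were incubated overnight at 30 C and dye-loaded at room temperature. Calcium flux over 180 s after compound addition flagged agonists; a further 180 s read after EC20 dopamine flagged potentiators.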

| SMILES | Potency |
| --- | --- |
| CSc1nc(N)c2ncn([C@@H]3O[C@H](COP(=O)(O)OP(=O)(O)OP(=O)(O)O)[C@@H](O)[C@H]3O)c2n1 | inconclusive: 461 nM [activator, partial curve, poor fit] |
| [Li+] | inconclusive: 820 nM [activator, partial curve, poor fit] |
| CC(N)(Cc1ccc(O)c(O)c1)C(=O)O (centres undefined) | inconclusive: 3260 nM [activator, single point] |

Target: D(1A) dopamine receptor (Homo sapiens) (UniProt P21728)
Experiment: HTS Assay for Allosteric Agonists of the Human D1 Dopamine Receptor: Primary Screen for Antagonists (AID 488983);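 further: calcium flux response to an EC80 dopamine challenge measured with no-wash dye; nearly all actives have a fitted effect of over 65% in size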
Conditions: D1 receptor cell assay, antagonist mode, qHTS titration; series mostly up to 41.8 µM
Procedure, shortened: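 Cells are induced with tetracycline and incubated overnight at 30 C, then loaded with calcium dye for 30 to 90 minutes at room temperature. Compound addition is followed by a 180 s read, then an EC80 dopamine addition and another 180 s read.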

| SMILES | Potency |
| --- | --- |
| CCCCOc1cc(CC2CNC(=O)N2)ccc1OC (centres undefined) | inactive |
| CCCn1c(=O)c2[nH]c(-c3ccc(OCC(=O)NCCN)cc3)nc2n(CCC)c1=O | inactive |
| COc1ccccc1N1CCN(CCN(C(=O)c2ccc(F)cc2)c2ccccn2)CC1 | inconclusive: 11.2 µM [inhibitor, single point] |
| COc1cc2c(CCNC(C)=O)c[nH]c2cc1O | inactive |
| NCC(O)c1ccc(O)c(O)c1 (centres undefined) | active: 14.1 µM |

Target: ATPase family AAA domain-containing protein 5 (Homo sapiens) (UniProt Q96QE3)
Chain of UniProt Q96QE3 (Q96QE3 whole entry, looked up, the tested form may be a part): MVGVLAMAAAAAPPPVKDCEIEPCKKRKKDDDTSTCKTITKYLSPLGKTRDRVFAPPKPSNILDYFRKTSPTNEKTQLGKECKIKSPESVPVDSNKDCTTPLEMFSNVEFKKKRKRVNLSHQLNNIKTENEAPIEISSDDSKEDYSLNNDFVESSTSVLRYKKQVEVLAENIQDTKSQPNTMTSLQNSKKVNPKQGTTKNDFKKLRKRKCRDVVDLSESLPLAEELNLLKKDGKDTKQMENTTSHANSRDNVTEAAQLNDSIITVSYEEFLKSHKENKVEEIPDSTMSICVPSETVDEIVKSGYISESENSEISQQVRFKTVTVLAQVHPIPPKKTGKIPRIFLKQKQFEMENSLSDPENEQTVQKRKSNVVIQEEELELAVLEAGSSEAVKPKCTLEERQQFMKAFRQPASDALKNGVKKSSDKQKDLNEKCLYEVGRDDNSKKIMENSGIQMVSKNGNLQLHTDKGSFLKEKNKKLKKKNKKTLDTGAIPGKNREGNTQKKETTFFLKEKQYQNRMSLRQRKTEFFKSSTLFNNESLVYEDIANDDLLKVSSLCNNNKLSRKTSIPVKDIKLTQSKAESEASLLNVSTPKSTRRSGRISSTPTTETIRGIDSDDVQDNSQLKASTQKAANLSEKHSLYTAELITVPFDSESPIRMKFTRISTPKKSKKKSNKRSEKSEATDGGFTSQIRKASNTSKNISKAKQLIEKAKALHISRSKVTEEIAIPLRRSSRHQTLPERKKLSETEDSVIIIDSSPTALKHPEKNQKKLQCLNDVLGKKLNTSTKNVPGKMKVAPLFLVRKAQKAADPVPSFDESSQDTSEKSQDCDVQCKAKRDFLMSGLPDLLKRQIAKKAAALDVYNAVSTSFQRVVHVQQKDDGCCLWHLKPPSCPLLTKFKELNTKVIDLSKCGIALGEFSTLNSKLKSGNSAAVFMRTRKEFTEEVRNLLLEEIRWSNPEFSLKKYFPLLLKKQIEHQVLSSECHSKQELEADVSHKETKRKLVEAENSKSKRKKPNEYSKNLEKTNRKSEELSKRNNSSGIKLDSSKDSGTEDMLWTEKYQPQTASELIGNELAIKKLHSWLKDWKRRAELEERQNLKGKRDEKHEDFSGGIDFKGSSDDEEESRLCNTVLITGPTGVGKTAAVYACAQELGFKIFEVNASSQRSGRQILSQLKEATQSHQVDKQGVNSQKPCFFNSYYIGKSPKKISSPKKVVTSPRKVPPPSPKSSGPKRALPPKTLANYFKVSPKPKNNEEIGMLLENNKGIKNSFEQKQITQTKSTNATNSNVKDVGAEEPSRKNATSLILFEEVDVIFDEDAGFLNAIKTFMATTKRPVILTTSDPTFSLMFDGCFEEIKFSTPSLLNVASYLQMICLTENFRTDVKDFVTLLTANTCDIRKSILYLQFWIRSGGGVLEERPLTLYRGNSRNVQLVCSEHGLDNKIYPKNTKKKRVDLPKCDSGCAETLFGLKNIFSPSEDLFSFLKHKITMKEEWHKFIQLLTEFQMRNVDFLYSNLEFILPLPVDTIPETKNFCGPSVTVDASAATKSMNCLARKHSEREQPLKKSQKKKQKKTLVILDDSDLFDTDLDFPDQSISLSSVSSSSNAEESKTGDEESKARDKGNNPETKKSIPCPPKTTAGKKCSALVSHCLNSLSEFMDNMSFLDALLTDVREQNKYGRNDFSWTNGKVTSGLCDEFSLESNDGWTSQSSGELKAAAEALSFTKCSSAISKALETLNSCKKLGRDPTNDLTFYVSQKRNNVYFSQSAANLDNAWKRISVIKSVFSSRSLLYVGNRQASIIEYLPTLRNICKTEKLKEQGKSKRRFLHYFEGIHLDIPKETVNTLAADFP
Experiment: Validation screen for small molecules that inhibit ELG1-dependent DNA repair in human embryonic kidney (HEK293T) cells expressing luciferase-tagged ELG1 (AID 493107); further: nearly all actives have a fitted effect of over 70% in size;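 on activity change, negative = decrease: cells co-treated with the DNA-damaging agent 5-fluorouridine alongside compound; on the % scale 0 is the no-effect control and ±100 the full control effect; inhibitors lower the ELG1-luciferase luminescence signal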
Conditions: HEK293T ELG1-luciferase level, luminescence, 5-fluorouridine co-treatment, 16 h; activity change, negative = decrease: at 46.1 µM (top of the series)
Procedure, shortened: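 Luminescence from ONE-Glo, developed 30 min at room temperature, served as read-out of ELG1-luciferase levels. Beforehand, reporter HEK293T cells received 5-fluorouridine plus test compound for 16 hr at 37 °C.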

| SMILES | Potency | activity change, negative = decrease |
| --- | --- | --- |
| Cc1cc2c(cc1Cl)N(C(=O)Nc1ccnc3ccccc13)CC2 | inactive |  |
| CCCn1c(=O)c2[nH]c(-c3ccc(OCC(=O)NCCN)cc3)nc2n(CCC)c1=O |  | inconclusive: 31.7% [activator] |
| COc1cc2c(CCNC(C)=O)c[nH]c2cc1O | inconclusive: 29.1 µM [activator, partial curve, poor fit] |  |
| CSc1nc(N)c2ncn([C@@H]3O[C@H](COP(=O)(O)OP(=O)(O)OP(=O)(O)O)[C@@H](O)[C@H]3O)c2n1 | inconclusive: 20.6 µM [activator, partial curve, poor fit] |  |

Tested on: not listed separately
Experiment: Nrf2 qHTS screen for inhibitors: Validation (AID 493153; active means well fitted inhibition curve with a large enough effect in the main read-out, with a control signal flat, not every such curve was filed as active; inconclusive means small, poorly fitted or top-dose-only effect, or effect the other way, or a change in a side signal; inactive means no such curve, though single readings can be large or run the other way)
Conditions: A549 ARE-Fluc reporter, luciferase luminescence, 18-24 h; series mostly up to 46.1 µM
Procedure, shortened: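 Luminescence from an ARE-firefly luciferase reporter in A549 cells gives Nrf2 inhibition; an earlier CellTiter-Fluor fluorescent read flags cytotoxicity. Cells in 5% FBS OPTI-MEM received compound dilution series for 18-24 h at 37°C.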

| SMILES | Potency |
| --- | --- |
| CC1C(=O)N(C)C(=O)c2nc[nH]c21 (centres undefined) | inactive |
| COc1ccccc1N1CCN(CCN(C(=O)c2ccc(F)cc2)c2ccccn2)CC1 | inconclusive: 14.6 µM [falling, partial curve] |
| CN(CC[C@@H](Oc1ccc(C(F)(F)F)cc1)c1ccccc1)CC(=O)O | inconclusive: 32.6 µM [inhibitor, single point] |
| NCCC1CCCC(CCN)N1 (centres undefined) | inconclusive: 14.6 µM [inhibitor, partial curve, poor fit] |

Target: Peptidyl-prolyl cis-trans isomerase NIMA-interacting 1 (Homo sapiens) (UniProt Q13526)
Chain of UniProt Q13526 (Q13526 whole entry, looked up): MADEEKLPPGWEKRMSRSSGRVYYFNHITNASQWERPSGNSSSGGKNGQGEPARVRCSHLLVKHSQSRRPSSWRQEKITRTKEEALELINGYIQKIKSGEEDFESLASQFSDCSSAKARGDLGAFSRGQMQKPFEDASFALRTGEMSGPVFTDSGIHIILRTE
Experiment: qHTS Validation Assay to Find Inhibitors of Pin1 (AID 504536; active means well fitted inhibition curve with a large enough effect in the polarisation, with a control signal flat, not every such curve was filed as active; inconclusive means small, poorly fitted or top-dose-only effect, or effect the other way; the % refers to the polarisation)
Conditions: Pin1 fluorescence polarization peptide binding assay; series mostly up to 57.5 µM
Procedure, shortened: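 Fluorescence polarization competition: compounds (titration) displace HiFluor-488-labeled Pin1-1b peptide from Pin1 (0.3 uM final) in pH 7.5 HEPES buffer with DTT, 10 min at room temperature; %Activity normalized to no-enzyme wells, curves fitted.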

| SMILES | Potency |
| --- | --- |
| N[C@H](C(=O)O)[C@H](O)C(=O)O | inconclusive: 19 µM [falling, single point] |
| CO/N=C(\C(=O)N[C@@H]1C(=O)N2C(C(=O)O)=C(CSc3nc(=O)c(O)nn3C)CSC12)c1csc(N)n1 (some centres undefined) | inconclusive: 15.1 µM [falling, partial curve] |
| CSc1nc(N)c2ncn([C@@H]3O[C@H](COP(=O)(O)OP(=O)(O)OP(=O)(O)O)[C@@H](O)[C@H]3O)c2n1 | inconclusive: 37.9 µM [falling, partial curve, poor fit] |
| O=C(O)c1cc(=O)cc(C(=O)O)[nH]1 | inactive |
| NCCCNCCCCNCCCN | inactive |

Target: Ubiquitin carboxyl-terminal hydrolase 1 (Homo sapiens) (UniProt O94782)
Chain of UniProt O94782 (O94782 whole entry, looked up): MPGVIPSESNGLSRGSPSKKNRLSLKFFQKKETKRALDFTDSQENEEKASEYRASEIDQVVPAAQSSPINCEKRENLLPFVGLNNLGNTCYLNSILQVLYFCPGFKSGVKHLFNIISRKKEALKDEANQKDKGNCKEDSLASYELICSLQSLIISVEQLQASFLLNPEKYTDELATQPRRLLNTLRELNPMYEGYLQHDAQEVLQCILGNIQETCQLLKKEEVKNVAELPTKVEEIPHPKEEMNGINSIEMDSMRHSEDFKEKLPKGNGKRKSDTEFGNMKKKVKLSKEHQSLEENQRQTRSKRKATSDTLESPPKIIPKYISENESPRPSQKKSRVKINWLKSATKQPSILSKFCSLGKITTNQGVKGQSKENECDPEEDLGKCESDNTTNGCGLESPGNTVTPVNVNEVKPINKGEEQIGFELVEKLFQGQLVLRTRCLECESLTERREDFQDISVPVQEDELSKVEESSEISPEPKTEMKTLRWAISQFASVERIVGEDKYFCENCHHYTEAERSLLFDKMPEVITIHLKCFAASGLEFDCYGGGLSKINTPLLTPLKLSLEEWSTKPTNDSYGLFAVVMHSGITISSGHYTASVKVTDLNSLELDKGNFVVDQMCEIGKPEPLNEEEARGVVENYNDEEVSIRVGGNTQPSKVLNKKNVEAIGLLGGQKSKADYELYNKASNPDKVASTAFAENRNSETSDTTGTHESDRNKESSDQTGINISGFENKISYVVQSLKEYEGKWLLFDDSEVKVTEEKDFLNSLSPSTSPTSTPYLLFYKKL
Experiment: Inhibitors of USP1/UAF1: Pilot qHTS (AID 504865);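 further: rhodamine fluorescence freed from ubiquitin-rhodamine substrate followed over time; nearly all actives have a fitted effect of over 35% in size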
Conditions: purified USP1/UAF1, Ub-rhodamine cleavage fluorescence; series mostly up to 54.9 µM
Procedure, shortened: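 1nM USP1/UAF1 + cpd, 15 min RT; start w/ Ub-Rho 150nM final; kinetic FL 480/540 nm, 6 reads q60 s. Buffer 50mM HEPES pH 7.8, 0.5mM EDTA, 1mM TCEP, 0.01% Tween-20, 0.1 mg/ml BSA.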

| SMILES | Potency |
| --- | --- |
| N[C@H](C(=O)O)[C@H](O)C(=O)O | inconclusive: 50.1 µM [inhibitor, partial curve, poor fit] |
| Cc1c2oc3c(C)ccc(C(=O)N[C@@H]4C(=O)N[C@@H](C(C)C)C(=O)N5CCC[C@@H]5C(=O)N(C)CC(=O)N(C)[C@@H](C(C)C)C(=O)O[C@H]4C)c3nc-2c(C(=O)N[C@@H]2C(=O)N[C@@H](C(C)C)C(=O)N3CCC[C@@H]3C(=O)N(C)CC(=O)N(C)[C@@H](C(C)C)C(=O)O[C@H]2C)c(N)c1=O (I: [aThr]V[dP][Sar][NMeV] / II: [aThr]V[dP][Sar][NMeV]; ester I:1-I:C, II:1-II:C; linker I:N-II:N via Actinocin(9to1)) | inconclusive: 6.31 µM [inhibitor, full curve] |
| CSc1nc(N)c2ncn([C@@H]3O[C@H](COP(=O)(O)OP(=O)(O)OP(=O)(O)O)[C@@H](O)[C@H]3O)c2n1 | inactive |

Tested on: not listed separately
Experiment: qHTS for Inhibitors of ATXN expression: Validation of Cytotoxic Assay (AID 588349)
Conditions: cytotoxicity counter-screen for ATXN expression inhibitors, cell viability; series mostly up to 57.1 µM
Procedure, shortened: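 Read-out: ATP-based luminescence (CellTiter Glo) reflecting viability of HEK293 cells after 72 hr incubation at 37 degrees C with a concentration series of each compound.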

| SMILES | Potency |
| --- | --- |
| N[C@H](C(=O)O)[C@H](O)C(=O)O | inactive |
| CCCn1c(=O)c2[nH]c(-c3ccc(OCC(=O)NCCN)cc3)nc2n(CCC)c1=O | inconclusive: 1.58 µM [rising, partial curve, poor fit] |
| COc1ccccc1N1CCN(CCN(C(=O)c2ccc(F)cc2)c2ccccn2)CC1 | inactive |
| COc1cc2c(CCNC(C)=O)c[nH]c2cc1O | inactive |
| CC(N)(Cc1ccc(O)c(O)c1)C(=O)O (centres undefined) | inconclusive: 35.5 µM [cytotoxic, single point] |
| CN(CC[C@@H](Oc1ccc(C(F)(F)F)cc1)c1ccccc1)CC(=O)O | inactive |
| Oc1cc2c(cc1O)C(c1ccccc1)CNCC2 (centres undefined) | inactive |
| CN1CCc2cc(O)c(O)cc2C(c2ccccc2)C1 (centres undefined) | inconclusive: 39.8 µM [cytotoxic, single point] |

— PubChem BioAssay (NCATS)
